Source: the supplement of paper PMC3724861
This is one part of the list.

Tested on: T1, Caupolican (Caup) homeodomain DNA-binding domain
T1 sequence: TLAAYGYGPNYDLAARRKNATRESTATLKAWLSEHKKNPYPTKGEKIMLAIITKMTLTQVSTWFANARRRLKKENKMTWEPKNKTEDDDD
Experiment: PBM E-score (8-mer, recovered from the published 9-mer minima) (E-score (dimensionless, -0.5 to 0.5)); Drosophila protein; higher = stronger relative binding preference, active = 0.31 or more
Method in brief: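 Caup's homeodomain DNA-binding domain (residues 214-303) was made by in vitro transcription and translation and applied at 100 nM to custom-designed protein binding microarrays. Each value is an enrichment score that gives relative binding preference for a short DNA word, with higher meaning stronger. The 8-mer values were recovered from published 9-mer scores, each of which was the minimum of its two constituent 8-mer scores. A cutoff of 0.31 marks candidate sites.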

Sequence | PBM E-score
CGTGACAA | inactive: 0.217
GGGACGAA | inactive: -0.0882
CAGGGCGA | inactive: -0.0706
ATCTTGAG | inactive: 0.0656
CATCTTGA | inactive: 0.0495
ACTGACCG | inactive: -0.149
CAATGATG | inactive: 0.165
CCCGGTGA | inactive: -0.165
ACGTAACC | inactive: 0.0348
GGACATTA | inactive: 0.213
GGATGGTA | inactive: 0.108
AGCCCAAC | inactive: -0.104
CGTCGCAG | inactive: -0.131
ATCGACTC | inactive: 0.0139
AGTCATCA | inactive: -0.016
GGAACAGA | inactive: 0.154
CTGCCTAA | inactive: -0.024
ATTTATGG | inactive: 0.124
CATGACCC | inactive: 0.0525
CTCAACCC | inactive: -0.2
GCCACCAC | inactive: -0.199
CACTTGCC | inactive: -0.021
CTCAGGTC | inactive: -0.098
CGTTTTCC | inactive: 0.0392
ATGACCCG | inactive: -0.0641

Sequence | PBM E-score
GCATACGA | inactive: 0.00412
CCGCAGAA | inactive: -0.0611
CATGTAGC | active: 0.332
AAGCGTGC | inactive: -0.0578
TCTTTGCA | inactive: 0.02
CTTCTAAC | inactive: -0.035
AACTATAA | inactive: 0.134
TAAGCCTA | inactive: -0.0476
CTCTAACC | inactive: -0.0687
CAGCTCCG | inactive: -0.112
AATACTCG | inactive: 0.138
CGTCTGTC | inactive: 0.0202
CTACAAGA | inactive: 0.263
CGCTTTCA | inactive: -0.0255
GACATGAA | active: 0.318
CGCGCACG | inactive: -0.139
ACTTCGCG | inactive: -0.0742
ACTACAAG | active: ≥ 0.378
AGCCTATG | inactive: 0.0254
GTTCTCAA | inactive: 0.12
CGACGCAC | inactive: -0.0645
GATGGACC | inactive: -0.00754
ACTTGGCA | ≥ 0.0126
CGTAGCAG | inactive: -0.105
GGACTTCA | inactive: -0.116

Sequence | PBM E-score
GGTTCACA | inactive: 0.0707
GAGTGCCC | inactive: -0.168
ACTTCCCT | inactive: -0.0978
CAGGCGTA | inactive: 0.00152
GGCATACA | inactive: 0.106
CCCAGAGC | inactive: -0.237
ACAGTCAC | inactive: 0.0665
TAAGTTGA | inactive: 0.135
CACCCACC | inactive: -0.0812
CCCCAGAA | inactive: -0.159
ACCAATGG | inactive: -0.0754
TAAGCGCA | inactive: -0.0729
ATCCGCGA | inactive: -0.0716
AAGGTATA | inactive: 0.0576
AGTCGACA | inactive: 0.243
CTTAACTC | inactive: 0.0277
AATTGTCG | inactive: 0.056
CGAACTTA | inactive: -0.101
ATCGTCTA | inactive: 0.0297
CGACGTGC | inactive: -0.0819
AAGGAGTA | inactive: -0.0149
CCTCGAAA | inactive: 0.0004
ACCAGCAC | inactive: 0.0439
CCAAGCCG | inactive: -0.197
CGGCCAGC | inactive: -0.233

Sequence | PBM E-score
AGAGCTCT | inactive: -0.176
AGCCCGAG | inactive: -0.187
GGCGATGA | inactive: -0.156
CCCTGCTA | inactive: -0.116
GCTATGCC | inactive: -0.148
TCTATCAA | inactive: 0.0734
AGAGAATG | inactive: 0.00744
AATAAAGT | ≥ 0.166
CTCACACC | inactive: -0.114
CGTGTGGC | inactive: -0.0635
AGTCATGG | inactive: -0.0716
ACTACCAG | inactive: 0.16
GCTCTTGA | inactive: -0.0842
CGCCTATC | inactive: -0.0134
ATGTCCTC | inactive: 0.272
CATTGGTA | inactive: 0.127
GGGTCGCA | inactive: -0.19
ACCATGCG | inactive: -0.0486
ATCGCCAA | inactive: -0.0895
ATACATCG | inactive: 0.273
AACGCATG | inactive: 0.0871
CGCATCCG | inactive: -0.134
AGATTTGC | inactive: 0.0709
ATCCATTA | inactive: 0.1
CACGACGC | inactive: -0.0593

Sequence | PBM E-score
CATGGCGC | inactive: -0.16
ACGGGGCG | inactive: -0.21
CGCCCGCC | inactive: -0.261
ACGACTAG | inactive: 0.135
ATACAATC | inactive: 0.126
AAACTCCA | inactive: 0.00485
AAAACCGC | inactive: -0.0256
AGTACAGC | inactive: 0.167
AGGTCGTA | ≥ 0.0868
ACTCCTCA | inactive: -0.104
AACAAGTT | active: 0.33
AGTGCAGA | inactive: -0.0583
CCTCAGCG | inactive: -0.174
CCAGTAGC | inactive: -0.123
GATTGTTA | inactive: 0.211
ATGAACTG | inactive: 0.0588
AGTGGAAG | inactive: -0.198
CCCGACTC | inactive: -0.175
AAACCTTC | inactive: -0.117
AACGAGCT | inactive: 0.0667
CTGTATGA | inactive: 0.0638
ACGTAGAG | inactive: -0.0582
CGATCCGA | inactive: -0.00075
CTGCGCAA | inactive: -0.0685
CAAAACAC | inactive: 0.145

Sequence | PBM E-score
TAACTACA | active: 0.348
CACCCTCC | inactive: -0.204
GACAGGAA | inactive: 0.209
CACCCTGA | inactive: -0.0659
ACCATTCT | inactive: -0.0332
GTGCGTTA | inactive: -0.0593
TGATACAA | inactive: 0.233
ACTCCCAC | inactive: -0.0626
GATGGCCA | inactive: -0.0559
CGATGTGC | inactive: -0.0367
CAGTGTGA | inactive: 0.123
GTCAACGA | inactive: 0.118
CGACCTGC | inactive: -0.145
ACCCCTAT | inactive: -0.0378
AAGATGAA | inactive: 0.0239
ATCAAGAA | inactive: 0.133
AGTATCCA | inactive: 0.0214
CAACCTCC | inactive: -0.103
AGCTACTG | inactive: -0.0037
TGATTACA | inactive: 0.284
TAACGCCA | inactive: -0.0503
GCGGCCAC | inactive: -0.241
CTACACCC | inactive: 0.104
CGGTCGCC | inactive: -0.279
CGCACGGA | inactive: -0.18

Sequence | PBM E-score
GAGATTAC | inactive: 0.0643
TCGCACCA | ≥ 0.0265
ATCCCTCC | inactive: -0.115
CGTGTAAC | active: 0.321
GACGAAGA | inactive: -0.0415
ATAATTGA | ≥ 0.167
TAGTGCGA | ≥ 0.0169
CCCTCGCG | inactive: -0.259
TAGCTTGA | inactive: -0.0181
CTGAGGGC | inactive: -0.252
ATAAATAT | inactive: 0.172
ACCACACT | inactive: 0.0151
TTACCCAA | inactive: 0.0239
CGGTATCC | inactive: -0.103
TGGAATAA | inactive: 0.0297
ATAGGAGG | inactive: -0.148
GCTCGCTA | inactive: -0.00463
AGTACCAT | ≥ 0.23
AGTGAGAA | inactive: -0.0861
ATTGAAGA | inactive: 0.0635
ATCCTCAC | inactive: -0.0239
ACAGTCCT | inactive: -0.0197
AAACCTCG | inactive: -0.112
AGCGCGCG | inactive: -0.06
AATTCACT | inactive: 0.06

Sequence | PBM E-score
ACAACCGA | inactive: 0.212
CGACCGTC | inactive: -0.138
AGCTACCC | inactive: -0.109
CAGACATG | inactive: 0.28
ATTATGCC | inactive: 0.041
ACCCGAAT | inactive: 0.0206
CGCACTCC | inactive: -0.186
AATTTTTC | inactive: 0.0927
CTGATAAC | inactive: 0.111
ATCTAAAA | inactive: 0.00698
AGGCGTAC | inactive: 0.0617
ACGGAGCC | inactive: -0.287
CCTAATGC | inactive: 0.00047
AACGGACA | inactive: 0.156
TAATACTA | ≥ 0.221
ACTGACTG | inactive: -0.057
CCATAAAG | inactive: -0.0873
AGACGCAT | inactive: -0.0367
ATCTTGCC | inactive: -0.021
GGATACAC | inactive: 0.154
CACAATCA | inactive: 0.052
ATCCGCAC | inactive: -0.121
GAAAATTC | inactive: -0.00014
TCCTCGAA | inactive: -0.013
ACCTCGGC | inactive: -0.245

Sequence | PBM E-score
ACAGTGCC | inactive: -0.0604
ACTTGTAG | inactive: 0.297
GACTTAGC | inactive: -0.0818
CGTAAGGC | inactive: -0.0394
CGTTCGCC | inactive: -0.101
CAGGGGAA | inactive: -0.133
CTAGTTTC | inactive: 0.0215
GAACCGCC | inactive: -0.183
TCCCCGGA | ≥ -0.103
AACCAGTA | inactive: 0.114
TACACACA | inactive: 0.284
CTAACAAA | inactive: 0.169
GTGCATGA | inactive: 0.129
CGTCGATC | inactive: 0.065
CTCATCGC | inactive: -0.0448
ACCATAGA | inactive: -0.0446
GGCGTGCA | inactive: -0.0859
GCTAACAA | inactive: 0.192
GTAACAAC | active: 0.341
AAGTCTTA | inactive: 0.0512
AAACTGAT | inactive: 0.0804
CTCAGTTC | inactive: -0.0141
AGGCACGG | inactive: -0.179
GCCTACCA | inactive: -0.146
